Assay results: the supplement of paper PMC3724861
The list shows a part of the results.

Tested on: T1, Caupolican (Caup) homeodomain DNA-binding domain
T1 sequence: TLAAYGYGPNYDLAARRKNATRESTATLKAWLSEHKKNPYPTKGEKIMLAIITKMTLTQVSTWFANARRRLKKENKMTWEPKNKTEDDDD
Assay: PBM E-score (8-mer, recovered from the published 9-mer minima) (E-score (dimensionless, -0.5 to 0.5)); Drosophila protein; higher = stronger relative binding preference, active = 0.31 or more
Summary of the method: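 An enrichment score, with higher meaning stronger, expresses relative binding preference for each short DNA word. The protein used was Caup's homeodomain DNA-binding domain (residues 214-303), produced by in vitro transcription and translation and tested at 100 nM on custom-designed protein binding microarrays. The 8-mer values were recovered from published 9-mer scores, each equal to the lower of its two constituent 8-mer scores.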

PBM E-score, ≥ 0.0391:
CGGAACGA

PBM E-score, active:
GTATGTTA 0.321
ATGTTGAC 0.322

PBM E-score, inactive:
ATAACGAC 0.0916
GGGGAATA -0.0595
TAAAACAA 0.232
GATTAATA 0.181
GATTAGTA 0.205
CGACTCGC -0.164
AAGATATT 0.0347
AGAATCCA 0.0103
ACCTCCGG -0.116
GAGAATTA 0.0377
CTCTCCAG -0.195
GACCGCTC -0.194
ACGGTGTC 0.0383
ACAGCGGC -0.0913
CGATCTGA -0.0153
AGCTCCCC -0.236
ACGCTTCA -0.0361
ATCTTCAC 0.0337
GATTCAGA 0.0563
CCCTACAG -0.132
AAACCCGT -0.0681
CCGGCTTA -0.155
CCCGGTTC -0.19
CACGTTCA 0.0688
CATCTATC 0.0165
AGTAGGTG 0.124
TCGGGACA 0.0786
GACCCTGA -0.13
AAACCGCA -0.137
TGCAGAAA 0.0408
GCGCGATA -0.0764
AGGACAAA 0.139
GTCTAACA 0.2
AGTTGTCC 0.235
GTCTACGA 0.0298
ATTGAGTC 0.088
AAATTGCA 0.128
AAGTTAAC 0.211
ACTATCTC 0.0489
CGTATGTC 0.145
CAACTCTC -0.0186
CCAATCCC -0.0731
ACCAGTCA 0.0961
ATAAATTA 0.171
CACCATAC -0.00193
GTTGACGA 0.0666
GGCGTTTA -0.0266
TACACCCA 0.147
CAAATTTG 0.0135
GTTTCTAA 0.0726
CAGTGCAA 0.0499
CAGGGGGA -0.243
GAGTCTAC -0.068
AAAGCTTC -0.127
ATATCGAT 0.154
CTATGCTA 0.0866
TTAATGAA 0.121
CTATCAAC 0.14

PBM E-score, ≥ 0.235:
GTTTACTA
